# Reference: the supplement of paper PMC3334620
# In all, about 33,000 sequences were measured (“E-score (-0.5 to 0.5)”: median about -0.016, highest 2% from about 0.31 on). The list shows a part of the results.
# Target: Cst6 (UniProt P40535)
# Test: PBM E-score (8-mer binding enrichment) (E-score (-0.5 to 0.5)); higher = stronger / more preferred TF binding; most listed sequences are background and not binding sites
# Details: protein concentration: 200 nM; construct: GST-DNA-binding domain
# Procedure: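 Universal 'all 10-mer' protein binding microarrays (Agilent AMADID 015681) probed with GST-tagged S. cerevisiae TFs (full-length or DBD) made by in vitro transcription/translation (PURExpress), about 100-200 nM. Bound TF was detected with fluorescent anti-GST. Each ungapped 8-mer (which stands for itself and its reverse complement) is scored by the PBM enrichment score (E-score), a modified Wilcoxon-Mann-Whitney statistic from -0.5 to +0.5, computed with the Universal PBM Analysis Suite. Scale: above 0.35 generally sequence-specific binding.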
row,Sequence,PBM E-score
1,GGGTACCA,-0.276
2,ATCGCCTA,-0.115
3,ACAGAGTA,0.0647
4,GAGAAATA,0.0985
5,AATAAGGC,0.175
6,ATCCAGAA,0.108
7,GGACCTCC,-0.265
8,ATTCTCCC,-0.0452
9,CAGTCTGA,-0.0415
10,CGGTCGAA,-0.156
11,GCATTAGC,-0.0756
12,AAATCGTT,0.131
13,CCCTGCCA,-0.122
14,CCAGGCAG,-0.206
15,ACAAATAG,0.214
16,CACCCCAA,0.0178
17,CCCGTTTA,-0.0448
18,ACGTTTTA,0.213
19,GACTATAC,-0.0569
20,TACCTTAA,-0.0137
21,CAGTCAGA,-0.099
22,CCGGGGGC,-0.359
23,ACAGAGCT,-0.198
24,CCGTATAA,0.225
25,AAGTAGGT,-0.122

row,Sequence,PBM E-score
1,GTGTAAAA,0.165
2,CTCCTATC,-0.222
3,ATGCGGGA,0.123
4,ATTTTAAA,0.308
5,GGTCTATA,-0.102
6,GTTGGGCA,-0.0664
7,CTTGCCAC,0.0533
8,AGTGCTTA,-0.0836
9,AGTGGGCC,-0.327
10,GGTATTGA,-0.137
11,GCCTTTAC,0.0676
12,AATACACT,0.192
13,ACAATACG,0.138
14,CGACTTCA,-0.0782
15,ACACACTG,-0.0897
16,ACCATCGC,0.119
17,ACTTTTGA,0.224
18,GGAGAGTA,-0.246
19,TCTTAGAA,0.214
20,CACTTATA,0.183
21,ACTGCAAG,-0.111
22,CTGCCAGC,-0.127
23,CCAGAGTA,-0.113
24,CCGAGGAA,-0.104
25,ACGTGTCT,0.15

row,Sequence,PBM E-score
1,AATCCACT,0.0752
2,GCCTCGCA,0.189
3,CATGTAAG,0.151
4,CTAAGGCC,-0.168
5,CACAAGTA,-0.149
6,AACCGCTC,-0.0305
7,AGAGATCG,-0.0567
8,AGAAGCAA,0.172
9,AGGATTGG,-0.0299
10,CCCAACCG,-0.157
11,TCAGCTGA,0.152
12,ACTTTGCG,0.0878
13,ATGAGCAG,-0.0198
14,ACCATCCG,-0.0928
15,ATGCCGGG,-0.0788
16,CCTACACA,-0.0404
17,ACCCATCG,-0.0974
18,AATTATAC,0.152
19,AAAAGAGA,0.0374
20,ACGGTAGA,-0.177
21,AGACAACG,-0.029
22,CGGATGAG,-0.135
23,AAAGTGCC,-0.104
24,CATTGTTC,-0.0577
25,GCTATTGA,0.108

row,Sequence,PBM E-score
1,AATAGCCG,0.0808
2,ACTTCATA,0.212
3,ACAGTGCA,-0.0278
4,CACGGATA,0.184
5,ACACATAT,0.21
6,CACTAAGG,-0.139
7,CTGAGGTA,0.0121
8,CAATGACC,0.148
9,GCGTGATA,0.038
10,GCGTGTTA,-0.0673
11,CCACTTTA,0.034
12,AAACCGAA,-0.00079
13,CCAAATTA,0.236
14,CCCTAACG,-0.067
15,GTTGCTTA,0.141
16,AACTTTGC,-0.0842
17,CGAGTTTA,-0.0493
18,AACATCCG,-0.00024
19,GTAACCGA,0.107
20,ATGAAGTG,0.121
21,CTGAGAGA,-0.0178
22,ATCAGTGC,0.128
23,AAAAGCGT,0.0324
24,AAGCTATC,0.112
25,ATGTACGA,-0.0138

row,Sequence,PBM E-score
1,CAGGAACG,-0.156
2,GTAATTCA,0.208
3,GCCATGAC,0.284
4,CGACAGGC,-0.271
5,ACGGGTAG,-0.0628
6,ACCTCCAG,-0.19
7,ATTTGCCA,-0.102
8,AGATAACT,0.0121
9,GCGGATCA,0.0437
10,TCTCACCA,0.0956
11,CATATGCC,0.229
12,GGTGCGTA,-0.062
13,AAAATTTG,0.152
14,GGAGCACA,-0.11
15,AGCGCTCC,-0.148
16,ATGGTGTA,0.0889
17,CCACAGCA,-0.0512
18,CATCTTGC,0.0149
19,ACCGCAAT,0.181
20,AACACGCG,0.0673
21,AGCGTAAA,0.0369
22,CAAAAATC,0.0454
23,ATGCTAAA,0.0592
24,CGTTGATA,0.185
25,GGGCCAAA,-0.179

row,Sequence,PBM E-score
1,GTTCCAGA,0.00917
2,ATTCAATC,0.166
3,GCAGCAGC,-0.133
4,ACGTACAG,-0.032
5,ACGACGCG,0.127
6,CACTGTGG,-0.113
7,GCACATCA,0.131
8,TAGACTAA,-0.0425
9,AGGAGATG,-0.0344
10,GAAGGTCC,-0.302
11,GGTCAATA,0.0678
12,ATGGTTCG,-0.0714
13,CGATGGGA,-0.179
14,CCAGGGAA,-0.0639
15,GTGTCACA,0.229
16,ACGTTACC,0.179
17,TGGGTTAA,-0.0301
18,ACACCTGG,-0.163
19,GTTCGATA,0.114
20,TAAGTCGA,-0.0876
21,ATCCGGGC,-0.174
22,AATCCCCG,-0.236
23,AGGCCCCC,-0.367
24,CTGGATAA,-0.0534
25,GCTTTTTA,0.125

row,Sequence,PBM E-score
1,ACTTATGA,0.147
2,ACGTGAGA,0.0305
3,AAAGGTCC,-0.191
4,AGAGAGTG,-0.227
5,ACCTTGGA,-0.142
6,CTAGTGTC,-0.161
7,AGGACGTG,-0.088
8,GTTCTCGA,0.00202
9,AATTAATT,0.311
10,AGTTCTAA,-0.125
11,ACCACGCA,-0.0852
12,CATACGCC,0.156
13,AGTGACTC,0.0809
14,GAGTTGGC,-0.176
15,CCGGAAGA,-0.094
16,AGTAAGGC,0.0482
17,AAACCATC,0.0908
18,AACCGACG,-0.0249
19,CCCCAATA,-0.0749
20,CTTGCATC,-0.0262
21,ATGCCGCC,0.0661
22,AAAAGACC,-0.148
23,CATGCAAC,0.0477
24,CCAGCGAC,-0.217
25,CTAATAAC,0.221

row,Sequence,PBM E-score
1,AGTATAGG,-0.189
2,ACTCTTTA,-0.0326
3,AATGCGTA,0.0909
4,GTGCGTGA,0.136
5,CTCGCGCC,0.0861
6,AGCGACTA,-0.207
7,CAAGGCTA,0.0896
8,ACATCCTA,0.0123
9,TAGCACCA,0.0296
10,GCGAGTCA,-0.0735
11,CGCAACTC,0.0252
12,AGGTTAGG,0.0241
13,AACAAAAA,0.252
14,ACCCAGGT,-0.33
15,ACGGAAAT,0.264
16,GAACGCAA,0.0684
17,CTTGCGAA,0.0868
18,ACTGCGTC,0.147
19,ATCGTCGG,-0.215
20,ACTCGTTC,-0.0158
21,AGCGTACA,-0.145
22,ATCATGGG,0.00408
23,CCCCCGAG,-0.336
24,AGGCCCGG,-0.41
25,AGAAGTTA,0.201

row,Sequence,PBM E-score
1,CACAAGCA,-0.0762
2,GGGCAACA,-0.124
3,GATGATAA,0.257
4,ATTCAAGG,-0.108
5,AACTGAGA,0.062
6,CCCAATCG,-0.0318
7,ACCAGCGT,-0.0674
8,AAAAGGTG,-0.0235
9,ATACTAGG,-0.154
10,AAGGGCCC,-0.19
11,ATCACGCG,0.221
12,AACCGGAT,0.106
13,ATGTTCCG,-0.107
14,GATCATCC,-0.0712
15,ACAATTAG,0.0142
16,CCCGCACC,-0.231
17,AGAGACAT,-0.0521
18,AGTGACGA,0.399
19,AGAGTTTA,0.176
